# Results as given in patent US20240390496A1 (UNIVERSITY OF SOUTHERN CALIFORNIA, published 2024).
# T1: CD19 on RAJI, Nalm6 or RS4;11 cells (human, UniProt P15391 20-556)
# T1 sequence (looked up): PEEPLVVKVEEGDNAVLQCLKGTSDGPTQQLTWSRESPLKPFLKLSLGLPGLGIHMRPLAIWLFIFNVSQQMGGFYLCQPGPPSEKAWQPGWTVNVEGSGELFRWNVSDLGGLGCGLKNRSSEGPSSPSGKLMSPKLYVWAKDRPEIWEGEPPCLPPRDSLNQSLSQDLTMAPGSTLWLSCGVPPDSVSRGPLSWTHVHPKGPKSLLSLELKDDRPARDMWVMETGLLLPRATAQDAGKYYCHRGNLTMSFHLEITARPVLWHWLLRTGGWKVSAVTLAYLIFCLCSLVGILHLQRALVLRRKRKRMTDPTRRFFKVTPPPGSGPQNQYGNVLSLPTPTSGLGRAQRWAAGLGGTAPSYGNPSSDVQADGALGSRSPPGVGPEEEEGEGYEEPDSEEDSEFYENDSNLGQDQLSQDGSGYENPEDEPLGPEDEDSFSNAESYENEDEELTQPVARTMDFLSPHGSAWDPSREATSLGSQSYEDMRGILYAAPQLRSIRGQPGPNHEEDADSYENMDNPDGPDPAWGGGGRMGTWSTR
# T2: CD20 on RAJI cells (UniProt P11836 1-297, limits assumed)
# T2 sequence (looked up): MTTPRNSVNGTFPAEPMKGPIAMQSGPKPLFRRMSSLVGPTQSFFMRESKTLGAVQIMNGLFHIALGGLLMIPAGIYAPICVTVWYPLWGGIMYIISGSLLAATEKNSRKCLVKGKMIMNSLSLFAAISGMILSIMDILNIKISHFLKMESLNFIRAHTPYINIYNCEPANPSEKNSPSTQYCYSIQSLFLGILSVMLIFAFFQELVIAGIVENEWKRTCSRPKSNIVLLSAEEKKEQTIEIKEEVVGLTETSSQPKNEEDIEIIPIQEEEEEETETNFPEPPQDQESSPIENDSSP
# Experiments:
# Assay in all cases: cell-based or functional assay
# [1] = target: T1, CD19 on RAJI, Nalm6 or RS4;11 cells
# [2] = target: T2, CD20 on RAJI cells
# [3] = target: CD22 on RAJI cells (UniProt P20273 20-847, limits assumed)
binder,measurement,setting,value
CD8SP-CD19Bu12-scFv-CD16A-F158V-S197P-FL-v3 (receptor) DEIVLTQSPATLSLSPGERATLSCSASSSVSYMHWYQQKPGQAPRLLIYDTSKLASGIPARFSGSGSGTDFTLTISSLEPEDVAVYYCFQGSVYPFTFGQGTKLEIKRGGGGSGGGGSGGGGSQVQLQESGPGLVKPSQTLSLTCTVSGGSISTSGMGVGWIRQHPGKGLEWIGHIWWDDDKRYNPALKSRVTISVDTSKNQFSLKLSSVTAADTAVYYCARMELWSYYFDYWGQGTLVTVSSTR[about 200 residues skipped]VSFCLVMVLLFAVDTGLYFSVKTNIRSSTRDWKDHKFKWRKDPQDK,"NFAT-GFP assay: JNG cells with the CD16-SAR, no drug selection, co-cultured ~24 h with RAJI",[1],0.3 + score
CD8SP-CD20-VHH-USC1-CD16A-F158V-S197P-FL-v3 (receptor) EVQLVESGGGLVQAGGSLRLSCAASGRTFSMGWFRQAPGKEREFVAAITYSGGSPYYADSVKGRFTISRDNAKNTVYLQMNSLKPEDTAVYYCAANPTYGSDWNAENWGQGTQVTVSSTR[about 200 residues skipped]VSFCLVMVLLFAVDTGLYFSVKTNIRSSTRDWKDHKFKWRKDPQDK,"NFAT-GFP assay: JNG cells with the CD16-SAR, no drug selection, co-cultured ~24 h with RAJI",[2],2.6 + score
CD8SP-CD22-h10F4v2-scFv-CD16A-F158V-S197P-FL-v3 (receptor) DIQMTQSPSSLSASVGDRVTITCRSSQSIVHSVGNTFLEWYQQKPGKAPKLLIYKVSNRFSGVPSRFSGSGSGTDFTLTISSLQPEDFATYYCFQGSQFPYTFGQGTKVEIKRGGGGSGGGGSGGGGSEVQLVESGGGLVQPGGSLRLSCAASGYEFSRSWMNWVRQAPGKGLEWVGRIYPGDGDTNYSGKFKGRFTISADTSKNTAYLQMNSLRAEDTAVYYCARDGSSWDWYFDVWGQGTLVTVSSTR[about 200 residues skipped]VSFCLVMVLLFAVDTGLYFSVKTNIRSSTRDWKDHKFKWRKDPQDK,"NFAT-GFP assay: JNG cells with the CD16-SAR, no drug selection, co-cultured ~24 h with RAJI",[3],0.1 + score
